From the supplement of paper PMC11417369 come the findings set out here.

This is one part of the list.

The subject of the test is PfAP2-HC AP2 domain (GST-tagged). The test can be described thus: gcPBM binding intensity (ln(normalized median fluorescence intensity)); higher = stronger DNA binding. The method, boiled down: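 GST-fused DNA-binding domains of P. falciparum, expressed in E. coli, were applied at about 25 μg on average for 1 h to an Agilent 4 × 180k array of primer-extended double-stranded 36-bp intergenic genomic probes and negative controls. Binding intensity is the highest Masliner-normalised natural-log median intensity across replicate spots of either probe orientation, measured with Alexa488 anti-GST antibody and a 488 nm scan.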
In the case of “TTTTATCACATTATTGCACACACATAAAGAAAAAAA [CACACA_site8922]”, the “gcPBM binding intensity (ln)” value is 9.98.

For “ATATATATATATATATGTACATATATATATAATTTT [XGTACX_site4146]”, the “gcPBM binding intensity (ln)” value stood at 9.62.

Turning to “ATATATATATATAACTGTACTTATATATACATTTTA [XGTACX_site8605]”, the “gcPBM binding intensity (ln)” value worked out at 9.64.

“TTATATTTATTTATTTGTACATATTTTTTTTTATAT [XGTACX_site1669]”: the “gcPBM binding intensity (ln)” value turned out to be 9.77.

For the sequence “TTTCTTTTTAAATATATACACACCGTGGGTACATAT [CACACA_site9102]”, the “gcPBM binding intensity (ln)” value amounted to 9.73.

Regarding “ATATAATAAAATGACACACGCATATATATATATATA [CACACA_site2789]”, the “gcPBM binding intensity (ln)” value was 9.74.

Consider “AGGCTCAAATCTAGGTGTACCATTATCGTTGTATCT [XGTACX_site4730]”, for which the “gcPBM binding intensity (ln)” value came to 9.78.

With “ATTTTTTCTTATAATGCATGTAGAAAACCGTACAGC [TGCATGCA_site57]”, the “gcPBM binding intensity (ln)” value came out at 9.31.

As for “TATGTGTTTATTTGGTGTACATACTAATAAATATAC [XGTACX_site1682]”, the “gcPBM binding intensity (ln)” value was determined as 9.63.

Consider “CCTAAATTATATTATGCACACTTAAAAATATATTTA [CACACA_site5861]”, for which the “gcPBM binding intensity (ln)” value was found to be 9.58.

As for “TCATATCTTTTGAGCACACATATATATATATAAAGG [CACACA_site3338]”, the “gcPBM binding intensity (ln)” value stood at 9.57.

“ATTAATATTCTATATGCATGTGAACCATGGTATATA [TGCATGCA_site430]”: the “gcPBM binding intensity (ln)” value was found to be 9.61.

As for “ATATATATATATATATGTACTTATTTATCGTATTAT [XGTACX_site3520]”, the “gcPBM binding intensity (ln)” value stood at 10.

With “ATAAAATATTAATTTTAAATTAATCAATATATATAA [GTGCAC_negctrl_site474]”, the “gcPBM binding intensity (ln)” value came to 9.4.

“TATCTTAACAATTAGTGTACAGATAACCAATTAAAA [XGTACX_site3184]”: the “gcPBM binding intensity (ln)” value is 9.55.

As for “AACATATAAAAATGTGCACACACACCCATATATATA [CACACA_site1525]”, the “gcPBM binding intensity (ln)” value came out at 10.3.

On to “ATAATAAATGATAGCACACATATGTACATAAATACA [CACACA_site4634]”, for which the “gcPBM binding intensity (ln)” value worked out at 9.96.

Regarding “TGAAGGTTTCAAAAACGTACAAAAAAAAATGTTAGT [XGTACX_site8803]”, the “gcPBM binding intensity (ln)” value worked out at 9.62.

For “TTTTTTTTTTATGGTACACACACGCGTATGGTTGCA [CACACA_site1876]”, the “gcPBM binding intensity (ln)” value was 10.

For “TTTAGAAATAAATACACACATACATTTTTGTATACA [CACACA_site718]”, the “gcPBM binding intensity (ln)” value was determined as 9.74.

As for “CTTTGTGGTATAGATACACACTATATTAAGATGAAC [CACACA_site5215]”, the “gcPBM binding intensity (ln)” value was 9.61.

Take “TAAAATAAAAATATAGTGCACAGATTTTGATATTTT [GTGCAC_site9696]”: the “gcPBM binding intensity (ln)” value was determined as 9.85.

For the sequence “CACATTATGTATCATACACACAAATAGATATATAAC [CACACA_site6434]”, the “gcPBM binding intensity (ln)” value was determined as 9.88.

Take “ACTTTTATTCGCTTACGTACATATATTATATATTAT [XGTACX_site4459]”: the “gcPBM binding intensity (ln)” value is 10.1.

Take “AAAAGAAAATATATGTGTACTAAAATATATATATAT [XGTACX_site3817]”: the “gcPBM binding intensity (ln)” value was 10.

Regarding GTTTATTAAACATTAGTGCAATTTTAATCCATTCTA, the “gcPBM binding intensity (ln)” value stood at 9.47.

As for “TACCTACACTTTTGGAGTACAATTAAAAAAAAAAAA [XGTACX_site1403]”, the “gcPBM binding intensity (ln)” value came to 9.3.

For “TTTAAAGTAATAAAGTGTACAAAAATAAATTCAGCT [XGTACX_site8651]”, the “gcPBM binding intensity (ln)” value was determined as 9.99.

Consider “TTCTTTGTAGTATATTAACACACAACTGTTTATAAT [CACACA_site9305]”, for which the “gcPBM binding intensity (ln)” value came to 9.91.

With “CAAATCAAAATTAATTAACACACAATTTTAATATTC [CACACA_site8641]”, the “gcPBM binding intensity (ln)” value is 9.65.

On to “TATAATGTTGATAATAGTACGTATGAGTTCAAAAAA [XGTACX_site988]”, for which the “gcPBM binding intensity (ln)” value is 9.65.

For “AAATAGAGAAATACAAGTACATACTAAACCAATCTA [XGTACX_site2780]”, the “gcPBM binding intensity (ln)” value worked out at 9.74.

In the case of “AAAGGATATAATACCATACACACATTTATAAAATAA [CACACA_site1931]”, the “gcPBM binding intensity (ln)” value turned out to be 10.4.

For the sequence “AAATCATGTTGAAGGGGTACAAAATATGTAATGTTG [XGTACX_site6222]”, the “gcPBM binding intensity (ln)” value stood at 9.82.

In the case of “ATATTATATATTTGATGTACATTGAATGAGAGAGAA [XGTACX_site3324]”, the “gcPBM binding intensity (ln)” value worked out at 9.95.

In the case of “TTAATCCTTTTTAAAAGTACACATATATATATATAT [XGTACX_site962]”, the “gcPBM binding intensity (ln)” value was 9.75.

For the sequence “TATATATATATATAATGTACAGAAAAAAAAAAAAAA [XGTACX_site6141]”, the “gcPBM binding intensity (ln)” value was found to be 9.58.

“AAAATTATGCAGTAGGTGCAATACCCTCGGCTTTTT [GTGCAC_site9556]”: the “gcPBM binding intensity (ln)” value was determined as 9.55.

As for “TTTTTTTTTTTTTTTGGTACACATTTTGGTTAATGG [XGTACX_site5109]”, the “gcPBM binding intensity (ln)” value was found to be 9.3.

Regarding “ATAAAAAGGTTTAAAAAAAAAAAAAAAAAAAAAAAA [CACACA_negctrl_site412]”, the “gcPBM binding intensity (ln)” value is 8.72.

As for “CTTGTGCTTTATAGGGTGCACATTTTGTTTTGGTAA [GTGCAC_site9899]”, the “gcPBM binding intensity (ln)” value was found to be 9.61.

Consider “TTATTAATTATATATAGTACACATTTCACAGATGGG [XGTACX_site2349]”, for which the “gcPBM binding intensity (ln)” value turned out to be 9.49.

Turning to “TGAACACATACATACACACACACAAAAAAAAAAAAA [CACACA_site392]”, the “gcPBM binding intensity (ln)” value was 10.3.

Regarding “TTATTTATGAGGGTGACACACAAAAGAGTGTTAAGA [CACACA_site277]”, the “gcPBM binding intensity (ln)” value was 9.79.

Regarding “AAAAAAAAACACGCATGTACATAAAAATAATCATAC [XGTACX_site1086]”, the “gcPBM binding intensity (ln)” value was 10.6.
